In all, about 310,000 compounds went through this assay and about 2,200 (0.71%) showed an effect of 50% or more. The effect is printed as a negative number. The list shows a part of the results.
molecular target: human ether-à-go-go-related gene (hERG) potassium channel (human, UniProt Q12809); assay: primary screen, population patch clamp on CHO cells stably expressing hERG
Sequence (Q12809 whole entry, looked up): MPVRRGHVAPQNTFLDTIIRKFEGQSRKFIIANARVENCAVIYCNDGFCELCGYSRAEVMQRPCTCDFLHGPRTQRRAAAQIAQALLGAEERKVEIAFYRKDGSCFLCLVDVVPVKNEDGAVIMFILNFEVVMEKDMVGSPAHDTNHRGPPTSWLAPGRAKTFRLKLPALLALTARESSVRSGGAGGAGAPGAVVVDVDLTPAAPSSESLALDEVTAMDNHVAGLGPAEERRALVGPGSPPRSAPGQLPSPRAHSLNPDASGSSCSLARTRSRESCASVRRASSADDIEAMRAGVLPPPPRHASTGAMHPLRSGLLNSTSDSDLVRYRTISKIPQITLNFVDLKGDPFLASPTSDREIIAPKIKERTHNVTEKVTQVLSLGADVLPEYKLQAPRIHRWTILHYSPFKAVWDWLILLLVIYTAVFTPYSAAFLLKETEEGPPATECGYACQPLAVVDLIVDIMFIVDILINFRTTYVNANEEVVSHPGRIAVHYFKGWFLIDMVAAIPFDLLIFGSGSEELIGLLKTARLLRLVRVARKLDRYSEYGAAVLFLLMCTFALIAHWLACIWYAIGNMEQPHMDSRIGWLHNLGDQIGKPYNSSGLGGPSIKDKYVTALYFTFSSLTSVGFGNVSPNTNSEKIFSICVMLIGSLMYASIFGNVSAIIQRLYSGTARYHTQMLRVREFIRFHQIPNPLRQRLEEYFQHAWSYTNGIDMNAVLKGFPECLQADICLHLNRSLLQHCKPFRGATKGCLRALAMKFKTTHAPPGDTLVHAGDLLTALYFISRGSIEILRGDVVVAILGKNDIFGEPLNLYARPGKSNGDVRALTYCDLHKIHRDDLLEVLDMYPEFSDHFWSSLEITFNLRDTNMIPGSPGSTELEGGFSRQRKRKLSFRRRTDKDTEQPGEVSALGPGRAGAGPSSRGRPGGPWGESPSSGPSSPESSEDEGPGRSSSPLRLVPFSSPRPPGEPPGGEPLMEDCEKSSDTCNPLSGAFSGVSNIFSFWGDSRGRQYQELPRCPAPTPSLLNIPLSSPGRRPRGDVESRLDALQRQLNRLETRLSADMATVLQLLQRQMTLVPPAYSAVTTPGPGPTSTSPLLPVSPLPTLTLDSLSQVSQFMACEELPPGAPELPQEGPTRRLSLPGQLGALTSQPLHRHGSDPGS

Compound | hERG current change (%, negative = inhibition) at 1uM [%]
Cc1ccc(/C=N/NC(=O)C2CCN(Cc3ccc(F)cc3Cl)CC2)o1 | -9.1
COCC(C)N=C1NN=C(c2c[nH]c3ccccc23)CS1 (centres unmarked) | 9.89
COc1cc(OC)c(C(=O)OCC(=O)N(Cc2ccccc2)C(C)(C)C)cc1OC | 14.5
CCN(CC)c1nc2c(c(=O)[nH]c(=O)n2C)n1CCOc1ccccc1 | 21
Cc1cccc(C(=O)NNC(=O)C23CC4CC(CC(C4)C2)C3)c1O | 17.4
COc1ccc(/C=C(\NC(=O)c2ccc([N+](=O)[O-])cc2)C(=O)NCCN2CCOCC2)cc1 | -45.8
CCN1c2ccccc2-c2nc3ccccc3n2C1c1cccnc1 (centres unmarked) | 7.14
COc1ccc(C2=NOC(C(=O)Nc3c(C)n(C)n(-c4ccccc4)c3=O)C2)cc1OC (centres unmarked) | 11.9
N#Cc1cccc(NC(=S)Nc2ccccc2)c1 | 10
CCN(CC)CCNC(=O)c1ccc(NC(=O)c2cccc(S(=O)(=O)[N-]c3ccc(C)cc3)c2)cc1.[K+] | -3.75
CC(C)(C)C(=O)CN1C(=O)NC(C)(Cc2ccc3c(c2)OCO3)C1=O (centres unmarked) | 6.6
COC(=O)c1cccc(Nc2ncnc3sccc23)c1 | 2.8
COc1cc(C(=O)N/N=C/c2ccccn2)cc(OC)c1OC | 11.2
COc1cc(/C=C2/NC(=O)NC2=O)cc(Br)c1OCc1ccc(C(=O)O)cc1 | 8.29
CC(C)(C)NC(=O)CN(c1cccc([N+](=O)[O-])c1)S(=O)(=O)c1ccccc1 | 1.84
O=C(Cc1c(F)cccc1Cl)N1CCN(S(=O)(=O)c2cccs2)CC1 | 11.2
CCOc1cc(C(=O)NCCN2C(=O)S/C(=C\c3cccnc3)C2=O)cc(OCC)c1OCC | 12.5
NS(=O)(=O)c1ccc(NC(=O)CCC(=O)c2ccc(Cl)s2)cc1 | 14.1
COc1ccc(C(=O)NCC(=O)N2CCN(c3ccccc3)CC2)cc1 | 3.59
Cc1onc(-c2ccccc2Cl)c1C(=O)N1CCc2ccccc2C1 | 6.07
O=C(COCC(=O)Nc1cccc(C(F)(F)F)c1)Nc1cccc(C(F)(F)F)c1 | 24.2
Cc1ccc(C(=O)Nc2nnc(-c3ccncc3)s2)o1 | 9.36

Compound | hERG current change (%, negative = inhibition) at 1uM [%]
O=C(NNC(=O)c1ccccc1O)c1ccc(S(=O)(=O)Nc2ccccc2)cc1 | 8.89
O=C(COC(=O)c1ccccc1C(=O)N1CCN(c2ccccc2)CC1)NCc1ccccc1 | -3.52
N#Cc1c(NC(=O)CN2CCN(S(=O)(=O)c3ccc4c(c3)OCCO4)CC2)sc2c1CCC2 | 7.35
COc1ccc(NC(=S)Nc2cccc3cnccc23)cc1 | -1.61
CCCC(=O)Nc1nc2ccc(NC(=O)c3cccnc3)cc2s1 | 0.651
O=C(COC(=O)c1ccccc1)Nc1ccc(Cl)cn1 | 12.3
CCOC(=O)CSc1nc(C)c2cccc(C)c2n1 | 10.9
O=C(C1CCCO1)N1CCN(C(=S)Nc2cccc(Cl)c2)CC1 (centres unmarked) | 2.65
CCc1ccc(C(=O)N/N=C/c2ccc(Cl)cc2Cl)nc1 | 5.58
Cc1cc(F)ccc1S(=O)(=O)Nc1ccccc1C(=O)NCc1ccccn1 | 9.77
CCS(=O)(=O)C1=NSC2=NC(=O)/C(=C\c3ccc(OC(=O)c4ccco4)cc3)C(=N)N21 | 15.8
Clc1ccc(Cn2ncc3c(N4CCCCC4)ncnc32)cc1 | -4.22
Cc1ccc(NC(=O)[C@@H]2CCCN2S(=O)(=O)c2ccccc2C(F)(F)F)cc1S(=O)(=O)N1CCOCC1 | 0.123
CCOC(=O)c1cc2c(OC)ccc(OC)c2n1CC(=O)c1ccccc1 | 6.46
O=C(CSc1nnnn1C1CCCCC1)NCc1ccccc1 | 11.7
Cc1csc(=O)n1CC(=O)OCC(=O)NC(C)c1ccc(F)cc1 (centres unmarked) | 1.63
O=C(CSCc1ccc(Cl)cc1Cl)Nc1ccc(O)cc1C(=O)O | 14.7
COCCn1c(SCCN2CCCCC2)nc2ccccc2c1=O | -53.3
Cc1cc(C)cc(NC(=S)NC2CC3CCCC(C2)N3CC(C)C)c1 (centres unmarked) | 11.3
COc1cccc(Nc2c(F)c(OC)c(F)c(F)c2C(=O)O)c1 | 11.9
O=C1CN(C(=O)COC(=O)CNC(=O)c2ccc(Br)o2)c2ccccc2N1 | 7.83
Cc1nc(SCC(=O)NC2CCCC2)c2c(C)c(C)sc2n1 | 11.1

Compound | hERG current change (%, negative = inhibition) at 1uM [%]
Cn1c(=O)c2c(SCC(=O)Nc3ccccc3F)nc(-c3ccccc3F)nc2n(C)c1=O | 11.5
COc1ccc(OC)c(S(=O)(=O)N2CCc3ccccc32)c1 | 10.7
CN(C)C(CNC(=O)c1ccc(Cl)c(S(=O)(=O)N2CCCCCC2)c1)c1ccccc1 (centres unmarked) | -27.8
CCCC(=O)Nc1cccc(NC(=O)c2cccc([N+](=O)[O-])c2C)c1 | 3.23
Cc1ccc(OC(C)C(=O)N2CC(=O)Nc3ccccc32)cc1 (centres unmarked) | -41.6
COc1ccc(C)cc1-n1c(-c2ccncc2)n[nH]c1=S | 7.3
O=C(CN1CCN(S(=O)(=O)c2ccccc2)CC1)Nc1ccc(Cl)c([N+](=O)[O-])c1 | -25.2
CCN1C(=C(C#N)C#N)C=Cc2cc(C)ccc21 | 14.9
Cc1ccc(S(=O)(=O)N(C)Cc2cc3cc(C)ccc3[nH]c2=O)cc1 | 13.1
Cc1ccc2nc(SCC(=O)NCc3cccs3)[nH]c2c1 | 2.2
COc1ccc(CNCC(O)(c2ccc(F)cc2)c2ccc(F)cc2)cc1OC | -30.4
CCOc1ccc(NC(=O)C2CC(=O)OC2c2ccccc2)cc1 (centres unmarked) | 6.84
Cc1cccc(NC(=O)CN(CC2CCCO2)C(=O)c2oc3ccccc3c2C)c1C (centres unmarked) | 17
CCOC(=O)Cc1cnc(NC(=O)Cn2nnc(-c3ccc(OCC)cc3)n2)s1 | 9.21
CN(C[C@H](Cc1ccccc1)N(C[C@H](c1ccccc1)N(CCc1ccccc1)N=O)N=O)N=O.[Na+] | 6.14
Cc1noc(C)c1COc1ccccc1C(=O)N1CCN(c2cccc(Cl)c2)CC1 | 13
Cc1cc(C(=O)NCc2cc(C(=O)O)oc2C)c(C)o1 | 5.79
Cc1sc2ncn(CC(=O)NCCCC(=O)N3CCN(c4ncccn4)CC3)c(=O)c2c1C | 18.5
COc1ccc(NC(=O)c2cccc3c2C(=O)c2ccc(-c4cnc(OC)nc4)cc2S3(=O)=O)cc1 | 14.5
O=C(COC(=O)/C=C/c1cccc([N+](=O)[O-])c1)NCc1ccco1 | 13.8
CCCCn1c(=O)c(CCC(=O)OCC(=O)NC(=O)NCCC(C)C)nc2ccccc21 | 2.09
Brc1ccc([C@H]2CN3CCSC3=N2)cc1.O=C(O)C(=O)O | 3.28

Compound | hERG current change (%, negative = inhibition) at 1uM [%]
CSc1ncccc1C(=O)OCC(=O)c1ccc(Br)s1 | 1.26
Nc1nc2c(c(=O)[nH]1)C(c1ccccc1)C1=C(N2)c2ccccc2C1=O (centres unmarked) | 3.2
CCOc1ccccc1OCCCC(=O)Nc1ccc(Cl)c(S(=O)(=O)N2CCOCC2)c1 | 7.17
Cl.c1ccc(COc2ccccc2CNC23CC4CC(CC(C4)C2)C3)cc1 | -73.8
CCC(C)C(NC(=O)c1ccccc1NC(=O)c1ccccc1)C(=O)O (centres unmarked) | -6.6
Cc1c(C#N)sc2nc(-c3ccccc3)nc(N3CCCC3)c12 | 14
CCOC(=O)C1(CCOc2ccccc2)CCN(C(=O)CCSC)CC1 | -11.3
CC(=O)c1ccc(N2CCN(C(=O)c3ccco3)CC2)c(F)c1 | 0.108
Cn1c2ccc(F)cc2c2ncn(CCN3CCOCC3)c(=O)c21 | -6.05
O=C(O)CC1Sc2ccccc2NC1=O (centres unmarked) | -12
CCOC(=O)C1=C(COC(=O)Cc2c(F)cccc2Cl)NC(=O)NC1C (centres unmarked) | 2.93
O=C(CC1(O)C(=O)Nc2ccccc21)c1cccnc1 (centres unmarked) | 9.72
Cn1c(CSc2nc3ccccc3s2)nnc1SCC(=O)NCc1cccnc1 | 2.2
COC(=O)C1=C(C(=O)OC)[C@@H]2Nc3ccccc3[C@@]23C[C@@H](C(=O)OC)N(C(=O)c2cccs2)C3=N1 | 8.31
CCOP(=O)(OCC)C(NC(=O)c1ccc(OC)cc1)C(Cl)(Cl)Cl (centres unmarked) | 14.9
CCOC(=O)N1CCN(C(=O)c2cccc(S(=O)(=O)Nc3ccc(Br)cc3)c2)CC1 | 7.62
COCCN=c1scc(-c2ccco2)n1/N=C/c1ccc(O)c(O)c1O | 8.87
COCCNC(=O)CSCc1nc(-c2ccc(SC)cc2)oc1C | 2.42
Cc1ccc2[nH]c3c(NCc4ccccc4)ncnc3c2c1 | 7.55
Cc1cccc(C(=O)N2CCN(CCNC(=O)C(=O)Nc3ccc(F)cc3)CC2)c1 | 4.08

From paper PMC4336329 (PLoS ONE, 2015)
